Results on 97 compounds are retold here after article PMC6919601, “Identification of Plasmodium dipeptidyl aminopeptidase allosteric inhibitors by high throughput screening” (PLoS ONE, 2019).

Screen size: about 110,000 compounds; about 230 (0.21%) showed an effect of 50% or more. The list shows a part of the results.
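Note: 30 min substrate incubation versus DMSO and 10 µM JCP410 controls.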

The target in the experiment is DPAP1 (Plasmodium falciparum, UniProt Q8IIJ9). The experiment can be described thus: primary screen, percent inhibition; read by cleavage of a fluorogenic dipeptide substrate; higher = more effect of the substance. More on the design: species or system P. falciparum D10 trophozoite lysates; single well.
DPAP1, sequence (Q8IIJ9 whole entry, looked up): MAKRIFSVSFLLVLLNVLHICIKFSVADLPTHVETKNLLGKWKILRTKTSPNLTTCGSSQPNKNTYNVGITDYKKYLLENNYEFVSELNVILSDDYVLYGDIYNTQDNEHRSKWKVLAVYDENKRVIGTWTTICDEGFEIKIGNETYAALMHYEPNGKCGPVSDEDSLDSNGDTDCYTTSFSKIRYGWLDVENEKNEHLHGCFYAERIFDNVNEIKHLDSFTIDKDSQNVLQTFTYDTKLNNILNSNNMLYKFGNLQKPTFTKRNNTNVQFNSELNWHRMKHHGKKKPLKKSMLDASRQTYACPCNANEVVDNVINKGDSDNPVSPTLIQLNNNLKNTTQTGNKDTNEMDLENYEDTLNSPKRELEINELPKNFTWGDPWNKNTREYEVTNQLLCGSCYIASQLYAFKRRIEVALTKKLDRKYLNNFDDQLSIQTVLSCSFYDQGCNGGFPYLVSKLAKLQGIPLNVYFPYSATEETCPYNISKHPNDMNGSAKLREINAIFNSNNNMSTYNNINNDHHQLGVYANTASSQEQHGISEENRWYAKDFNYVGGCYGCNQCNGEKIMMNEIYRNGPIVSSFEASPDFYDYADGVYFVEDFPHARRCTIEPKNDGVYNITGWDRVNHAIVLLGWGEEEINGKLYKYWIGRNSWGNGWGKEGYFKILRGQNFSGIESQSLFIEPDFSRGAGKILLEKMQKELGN
Consider `C#CCSc1nnc(-c2ccccc2)c(O)n1`, for which the “% Inhibition @ 10 uM” value is recorded as -1.55%.
Regarding `CC(=O)/C(C)=C(\NC(=O)c1ccccc1)c1ccccc1`, the “% Inhibition @ 10 uM” value came to 2.58%.
For `CCOc1ccc(C2CC(=O)NC3=C2C(=O)CCC3)cc1OC` (stereo not shown), the “% Inhibition @ 10 uM” value came to 6.28%.
Turning to `CC1=C(C(=O)OCC2CCCCC2)C(c2ccc(Cl)c(Cl)c2)NC(=O)N1` (stereo not shown), the “% Inhibition @ 10 uM” value is reported as -3.14%.
As for `Cc1oc(-c2ccc(C(=O)NC(C)c3ccccc3)cc2)nc1COc1ccccc1` (stereo not shown), the “% Inhibition @ 10 uM” value is reported as -4.97%.
To `N#CC1=C(SCC(=O)O)NC(=O)C(C#N)C12CCCC2` (stereo not shown) belongs -3.66%.
To `COc1ccc2c(c1)CCC1C2=NN(C(C)=O)C1c1ccc(Br)cc1` (stereo not shown) belongs -7.02%; to `COc1cccc(/C=C(\C)C(=O)c2c(C)cc(C)nc2O)c1OC`, 21.3%; to `COc1ccc(NCN2C(=O)c3ccccc3C2=O)cn1`, 4.22%.
To `O=C(c1ccccc1)c1cccn1CC(=O)N1CCC(N2CCCCC2)CC1` belongs -0.522%; to `CCn1ncc(C(=O)Nc2c(C)nn(Cc3ccc(Cl)c(Cl)c3)c2C)c1C`, -6.66%; to `CC(=O)N(c1ccc(C)cc1)C1SC(=O)N(c2ccccc2)C1=O` (stereo not shown), 4.74%.
Regarding `O=[N+]([O-])c1ccc(-n2nnnc2/C=C/c2ccccc2)cc1`, the “% Inhibition @ 10 uM” value is listed as -5.9%.
Regarding `Cc1noc(C)c1CCNC(=O)C1CCCN(c2ncnc3c2nc2n3CCCCC2)C1` (stereo not shown), the “% Inhibition @ 10 uM” value was determined as 0.721%.
The same measure for `Cc1noc(C)c1CSc1nc2ccccc2[nH]1`: -3.23%.
To `O=C(NC1CCCC1)C1CCN(c2nnc(-n3cccc3)s2)CC1` belongs -1.6%; to `CC(=O)N1C(=O)C2(C(C#N)=C(N)OC3=C2C(=O)CC(c2ccco2)C3)c2ccccc21` (stereo not shown), -1.84%; to `Cc1ccc(N2CCN(C(=O)c3ccccc3NC(=O)c3ccccc3C(=O)O)CC2)cc1`, -9.82%.
On to `CCOc1ccc(N(CC(=O)NC2CCCCC2)S(=O)(=O)c2ccc(C)cc2)cc1`, for which the “% Inhibition @ 10 uM” value is -4.31%.
The same measure for `CC(=O)N1CCC2(CC1)OC(=O)C(C)=C2C(=O)NCCc1ccc(Cl)cc1`: 0.822%.
To `O=C(Nc1cc(Cl)ccc1Cl)C1CCN(S(=O)(=O)c2ccccc2)CC1` belongs -3.21%; to `OCCN(CCO)C1CCSC1` (stereo not shown), -1.15%.
On to `O=C1c2ccccc2-c2nn(C(=O)c3ccco3)c3cccc1c23`, for which the “% Inhibition @ 10 uM” value is -0.958%.
The same measure for `CC(C)Oc1ccccc1/C=C1\SC(=N)N(c2nccs2)C1=O`: 50.1%.
The same measure for `CCOC(=O)C1=C(CNC(C)c2ccccc2)NC(=O)NC1c1ccccc1` (stereo not shown): -4.97%.
To `COc1ccc(/C=C2N=C(/C=C/c3ccc(C)cc3)OC\2=O)cc1` belongs -3.62%; to `Cc1cccc(CSc2nc(O)c3[nH]cnc3n2)c1`, -1.35%.
For `O=C(CSc1nc2ccccc2s1)c1ccc(-c2ccccc2)cc1`, the “% Inhibition @ 10 uM” value is 1.66%.
The same measure for `CCOc1c(Cl)cc(C(=O)N(Cc2cccc(OC)c2)C2CCS(=O)(=O)C2)cc1Cl` (stereo not shown): -3.12%; for `O=C(NCc1ccccn1)C1CCCCC1`: 0.408%; for `COc1ccc2[nH]cc(CCNC(=O)c3cnn(-c4ccc(F)cc4)c3C3CCNCC3)c2c1`: -4.07%.
With `O=S(=O)(c1ccccc1)c1nnn2c1nc(N1CCC3(CC1)OCCO3)c1cc(Cl)ccc12`, the “% Inhibition @ 10 uM” value is on record as 0.291%.
For the compound `Cc1ccc(S(=O)(=O)N(Cc2nc(-c3ccccc3)no2)C2CCCCC2)cc1`, the “% Inhibition @ 10 uM” value came out at 3.74%.
`O=C1C=C(N2CCCCC2)c2ccccc2C1=O`: the “% Inhibition @ 10 uM” value was -6.17%.
For the compound `C[C@@H](C[C@H](NC(=O)c1ccc(-c2ccccc2Cl)cc1)C(=O)NC1(C#N)CCN(CC(F)(F)F)CC1)c1ccccc1`, the “% Inhibition @ 10 uM” value is -3.14%.
As for `COc1ccc(-c2cn3c(n2)sc2cc(C(=O)NC4CCCC4)ccc23)cc1`, the “% Inhibition @ 10 uM” value was 2.73%.
On to `CC1CCN(S(=O)(=O)c2cc(Br)ccc2Br)CC1`, for which the “% Inhibition @ 10 uM” value is -8.57%.
The same measure for `CC(=O)CC1(O)C(=O)Nc2ccccc21` (stereo not shown): -1.29%.
Turning to `CCOc1ccc(-c2[nH]nc3c2C2(C(=O)Nc4ccc(C)c(Br)c42)C(C#N)=C(N)O3)cc1` (stereo not shown), the “% Inhibition @ 10 uM” value was -4.67%.
The same measure for `N#CC1=C(N)Oc2cc(N)ccc2C1c1cccnc1` (stereo not shown): 1.35%; for `CCOC(=O)c1c(NC(=O)/C=C/C(=O)O)sc2c1CC(C(C)C)OC2` (stereo not shown): -1.52%; for `O=C(CCCN1C(=O)c2ccccc2C1=O)Nc1ccc(S(=O)(=O)Nc2nccs2)cc1`: -0.638%.
For the compound `CC(C)(C)NC(=O)C(=O)NCc1ccc(Cl)cc1Cl`, the “% Inhibition @ 10 uM” value came out at 3.35%.
The same measure for `CC(C)(C)NS(=O)(=O)c1ccc(OCC(=O)NCc2ccco2)cc1`: -3.92%; for `Cc1oc2ccc(O)c(CN3CCN(C)CC3)c2c1C(=O)NC1CCCCC1`: -6.72%; for `CC(=O)Nc1cc2nn(-c3ccc(Cl)cc3)nc2cc1C`: -1.07%.
Turning to `CC(=O)Nc1cccc(N2CCCC2=O)c1`, the “% Inhibition @ 10 uM” value worked out at 6.09%.
Regarding `CCCCn1c(-c2ccc(OCC)cc2)cnc1NCc1ccccc1O`, the “% Inhibition @ 10 uM” value is -2.91%.
The same measure for `O=C(CSC1=NCCS1)N1CCN(c2ccc(Cl)cc2)CC1`: 2.32%.
The same measure for `CCCCCCNC(=O)Cc1c(C)nc2cc(-c3ccccc3)nn2c1C`: -2.25%; for `Fc1ccccc1N1CCN(Cc2ccc(Br)s2)CC1`: 0.847%; for `CC1=C(C(=O)OCC2CCCO2)C(c2cccc(Cl)c2Cl)CC(=O)N1` (stereo not shown): 3.67%.
Turning to `Cc1cc(C)n(-c2nc3ccccc3nc2Cl)n1`, the “% Inhibition @ 10 uM” value was 0.472%.
The same measure for `Cc1oc2ccc(O)c(CN3CCOCC3)c2c1C(=O)OCC(C)C`: -2.99%; for `CS(=O)(=O)N(CC(=O)Nc1ccc(CC#N)cc1)c1cccc(F)c1`: -0.303%; for `Cc1nn(-c2ccccc2)c2sc(C(=O)Nc3ccccc3C#N)cc12`: -2.97%.
The same measure for `CCOC(=O)N1CCc2c(sc3c2C(=O)NC(c2cc(Br)ccc2OC)N3)C1` (stereo not shown): 4.08%.
`CCOC(=O)N1CCC(NC(=O)c2cc3c(s2)-c2ccc(Cl)cc2S(=O)(=O)C3)CC1`: the “% Inhibition @ 10 uM” value is 4.14%.
For the compound `N#CC1(NC(=O)[C@H](Cc2c(F)cccc2F)NC(=O)c2ccc(-c3ccccc3Cl)cc2)CCN(C2CC2)CC1`, the “% Inhibition @ 10 uM” value was -6.98%.
Turning to `CCOC(=O)C1=C(Cc2ccc(C)cc2)C(=O)c2ccccc2C1=O`, the “% Inhibition @ 10 uM” value turned out to be 5.29%.
For `NC(=O)C1CCCN(CCCc2ccccc2)C1` (stereo not shown), the “% Inhibition @ 10 uM” value is -2.02%.
The same measure for `CC(C)C[C@H](NC(=O)c1ccc(-c2ccc(F)cc2)cc1)C(=O)NCC#N`: -1.41%; for `COc1ccc(-c2ccc(C#N)c(SCC(=O)Nc3ccc(OC)c(OC)c3)n2)cc1`: -5.01%.
The same measure for `C=CCn1c(COc2cccc3ccc(C)nc23)nnc1SCC(N)=O`: 2.12%; for `COc1ccc(C2C3=C(CCCC3=O)OC3=C2C(=O)CCC3)cc1OC`: 2.47%; for `Cc1nn(CC(=O)NCc2ccc3c(c2)OCO3)c(=O)c2nn(-c3ccccc3)c(C)c12`: -1.59%.
Turning to `Cc1ccc(CNC(=O)C2CCC(Cn3c(=O)[nH]c4ccsc4c3=O)CC2)cc1` (stereo not shown), the “% Inhibition @ 10 uM” value is on record as -3.27%.
To `COc1ccc([N+](=O)[O-])cc1C1NC(=O)c2c(sc3c2CCCC3)N1` (stereo not shown) belongs 12%; to `Cc1cccc(-c2nc(CS(=O)CC(=O)NCCCSC3CCCCC3)c(C)o2)c1` (stereo not shown), -2.85%; to `O=[N+]([O-])c1ccc(OCSc2ccccc2)cc1`, -6.29%.
To `CC(=O)Nc1ccc(NC(=O)COc2ccc(C)cc2Br)cc1` belongs -2.8%; to `COc1ccc(N2CCN(C3CCN(Cc4ccccc4)CC3)CC2)cc1`, -4.75%.
The same measure for `Cc1ccccc1OCCSc1nc(-c2cccs2)nc2cc(=O)[nH]n12`: -4%; for `Cc1nn(C(C)C(=O)NCc2ccccc2Cl)c(=O)c2nn(-c3ccccc3)c(C)c12` (stereo not shown): 0.227%.
Consider `C#CC(C)(CC)NS(=O)(=O)c1cc(Cl)ccc1OC` (stereo not shown), for which the “% Inhibition @ 10 uM” value is given as -0.403%.
To `COC(=O)c1ccc(NC(=O)CN2CCN(c3ccccc3C)CC2)cc1` belongs 1.62%.
Consider `COc1ccc(C)cc1NC(=O)C1C2C=CC(O2)C1C(=O)O` (stereo not shown), for which the “% Inhibition @ 10 uM” value is 1.79%.
Turning to `O=C(Cn1c(=O)[nH]c2ccsc2c1=O)N(Cc1ccccc1)Cc1ccccc1`, the “% Inhibition @ 10 uM” value is on record as -0.58%.
Consider `CCOc1ccc(C(=O)Nc2cc(C)cc(C)c2)cc1`, for which the “% Inhibition @ 10 uM” value is recorded as 1.71%.
To `Cc1cc(=O)oc2c1c(C)nn2-c1ccc(C(=O)OC(C)C)cc1` belongs 0.708%; to `CCCc1[nH]nc2c1C(c1ccc(F)cc1F)C(C#N)=C(N)O2` (stereo not shown), -0.661%.
To `COCCCNC(=O)CN1C(=O)c2ccccc2S1(=O)=O` belongs -7.96%.
As to `N#Cc1cc2c(nc1SCC(N)=O)CCC2`, the “% Inhibition @ 10 uM” value was 9.01%.
Take `Cc1cc(NC(=O)NC(=O)c2cccc(OC(F)(F)C(F)F)c2)[nH]n1`: the “% Inhibition @ 10 uM” value was -1.38%.
For the compound `CC1(C)Cc2ccccc2C2=C(C(=O)N3CCCCC3)C(=O)C(=O)N21`, the “% Inhibition @ 10 uM” value was 2.22%.
The same measure for `COC(=O)c1c[nH]n2c(NC3CCC(C)CC3)c(-c3ccc(C)cc3)nc12` (stereo not shown): 11.6%.
The same measure for `CCOc1ccc2nc(/N=C(\N)NC(=O)c3ccccc3)nc(C)c2c1`: -5.82%.
To `O=C(CCC1CCCCC1)N[C@@H](CCc1ccccc1)C(=O)c1nc2cc([N+](=O)[O-])ccc2o1` belongs -1.83%.
Regarding `CCOC(=O)N1CCc2c(sc3[nH]c(=O)n(Cc4ccccc4)c(=O)c23)C1`, the “% Inhibition @ 10 uM” value was found to be 0.813%.
To `CC(C)C[C@H](NC(=O)N1CCN(C(c2ccccc2)c2ccc(Cl)cc2)CC1)C(=O)NCC#N` (stereo partly shown) belongs -5.2%; to `NC(=O)/C=C/c1cccc([N+](=O)[O-])c1`, 2.94%.
To `Cn1c2ccccc2c2c(C(=O)NCc3ccc(F)cc3)cn(C3CCCCC3)c(=O)c21` belongs 3.48%.
On to `COc1ccccc1C1CC(=O)N(C)C2=C1C(=O)CC(C)(C)C2` (stereo not shown), for which the “% Inhibition @ 10 uM” value is on record as -6.88%.
For `Cc1ccc(/C=C2/SC(=O)NC2=O)c(C)c1`, the “% Inhibition @ 10 uM” value is listed as 4.38%.
Consider `CCCOc1ccc(C(=O)CCN2CCN(C(=O)OCC)CC2)cc1`, for which the “% Inhibition @ 10 uM” value came to 0.189%.
On to `CCOC(=O)N1CCC(NCCN(C)C)CC1`, for which the “% Inhibition @ 10 uM” value stood at 0.217%.
In the case of `O=C1CC(c2cccc(Cl)c2Cl)c2ccc3ccccc3c2N1` (stereo not shown), the “% Inhibition @ 10 uM” value is reported as -2.35%.
